# Assay results reported in PubChem BioAssay (NCI).
# The source holds several records for some structures; these can differ, active in one and inactive in another.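 Interpretation: 100, growth as untreated; towards 0, rising growth inhibition; 0, no net growth; 0 to -100, cell death. Compounds scoring below 10 were considered active.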 Certain results were filed several times, with different values. This list holds those alone. There may be further records. These are repeated runs of one drug, at the concentration stated with the values; each value is one run. Counts like (3×) say how often a value occurs here.
# Tested on: HOP-92 NSCLC
# Assay: NCI-60 one-dose screen, 48 h (100 = growth as untreated, 0 = no growth, -100 = all killed)
# Conditions: 0.25 µM
structure (smiles),measurement,setting,value
COc1cccc2c1C(=O)c1c(O)c3c(c(O)c1C2=O)C[C@@](O)(C(=O)CO)C[C@@H]3OC1CC(N)C(O)C(C)O1 (stereo not given in full),growth,runs of 2006,"active: -3.49%, 9.41%"
same,growth,runs of 2007,"active: -8.8, -4.63, -11.7, -12.8, -0.101, -5.72, -7.15, 8.99, -1.19, -16.9, -14.7, 6.01, -12.5, -2.68, -10.7, -25.5, -11.4, 5.85, -17.3, 1.13, 5.64, -19.9% and inactive: 14.4, 17, 16.1, 15.4, 16.3, 20.5, 13.5, 17.2, 32.4, 20.6, 24.7, 15.9, 11.1, 29.9 (2×), 15.1, 30.4, 31.3, 38.1, 39, 21.1, 40.7%"
same,growth,runs of 2008,"inactive: 31.7, 60.4, 10.5, 25.2, 15.6, 35.8, 14.5, 32.3, 12.1, 37.2, 22.9, 16.4, 11.3, 19.2, 25.7, 17.8, 71.6, 11.4, 15.5, 37.5, 12.5, 29.4, 41, 28.3, 11.5, 36.9, 52.2, 18, 46.5, 23.1, 10.9% and active: -11.1, 9.68, 3.28, -8.59, 3.43, -4.33, -12.7, -0.687, 3.49, -2.74, 7.63, 0.426, 1.55, -14, -26.5, -10.5, -5.79, -19.6, -18%"
same,growth,runs of 2009,"active: -10.9, -8.14, 4.41, 8.41, -2.04, -4.58, -2.88, 1.43, -4.34, 6.8, -6.63, -9.77, 1.64, -11.1, -2.66, 7.51, 9.14, 5.68, 3.68, -4.38, 2.1, -6.57, -6.69, -7.01% and inactive: 27.2, 58, 63.6, 37.3, 40.4, 53.5, 45.3, 29.5, 43.6, 32.1, 15, 35.6, 41, 39.5, 35.9, 39.4, 11.8, 20.5 (2×), 31.9, 13.2, 21.2, 21.4, 19.3, 23.1, 29.8, 58.5, 32, 45.8, 35.7, 43.7, 46.5, 26.3, 55.4, 15.5, 26.1, 17%"
same,growth,runs of 2010,"inactive: 24.2, 31.9, 50.2, 25.2, 20.6 (2×), 57.7, 40.3, 28.6, 33.3, 15.5, 35, 56.6, 26.3, 17.3, 16.5, 30.2, 10.6, 23, 22.2, 33.2, 60.4, 45.7, 61.8, 26.1, 22.8, 31.1, 24.4, 17.1, 25.9, 39.1, 23.4, 29.7, 67.1, 17.7, 42.4, 49.1, 41.1, 18.4, 46, 21.7, 59.3% and active: 8.06, 3.33, -1.42, -6.39, -7.23, 9.34%"
same,growth,runs of 2011,"inactive: 43.6, 32.9, 28.9, 37.3, 39.3 (2×), 32.2, 26.5, 11.6, 58.7, 60.4, 42.7, 29.5, 59.7, 47.4 (2×), 41.2, 40.3, 53.3, 40.7, 53.8, 38.8, 35.8, 65.7, 65, 54.3, 45.2, 52.8, 52.7, 30.7, 68, 42.8, 44.7, 46, 13.6, 24.9, 17.6, 32.5, 17, 36.8, 45, 43.2, 34.9, 23.7, 12.5, 22.9, 13.1, 20.1, 12% and active: 1.02, -1.33, 8.75, 1.28, 4.38%"
same,growth,runs of 2012,"inactive: 37.3, 47.9, 38.5 (2×), 15.6, 32.9, 14.2 (2×), 51.1 (2×), 21.2, 16.3, 41.1 (2×), 42.9, 14, 12.2, 61.3, 40.2, 29, 24.7, 19.7, 14.6, 19.1, 13.6, 42.2, 38.8, 32.4, 49.1 (3×), 37.2, 49.7, 30.9, 39.4, 52.2, 17.2, 13.4, 40.3, 57.8, 28.3, 25.5, 56.2, 40.6, 76.7, 58.6, 55.9, 21.9, 67.5, 80.1, 29.5, 64.7, 18.8, 45.7, 43.2% and active: 9.65, 8.07, 0.704, 1.76, -1.91, -1.56, -0.632, -3.25, -5.57, 8.47, 7.78, 9.29, 8.3, 9.98%"
same,growth,runs of 2013,"inactive: 20.3, 25.3, 44.4, 39.3, 32.7 (2×), 28.2, 17.8 (2×), 69, 53.6 (2×), 49.5, 26.2, 51, 28.9, 59.7, 25.4, 27.7, 58 (2×), 25.7, 46.5, 56.1, 11.1, 24.9, 21, 11.3, 50.5, 19.8, 10.3, 36.6, 48.2, 55.5, 31.6, 29, 23.5, 18.3, 55.9, 40.7, 20.6, 14.7, 20.8, 23.3, 22.7, 35.1, 19.7, 40.6, 28.6, 38.1% and active: 6.96, 7.27, 3.37, 3.83, 5.93, 0.716, -6.58, -6.92, 4.43, 7.88, -5.55, 9.98%"
same,growth,runs of 2014,"inactive: 12.1, 12.8, 31.6 (2×), 22, 14.5, 12.5, 11.8, 37.4, 35.4, 47.5, 38.8, 29.8, 26.1, 27.6, 33.3, 42.2, 48.7, 31.5, 14.7, 17.9, 22.1, 16.3, 16.8, 30.5, 16.2, 21 (2×), 26.2, 27.9, 20.6, 44.6, 24.2, 50.1, 41.1, 36.4, 23.2, 24, 10.3, 22.8, 40.2, 40.8, 20.2, 13.4, 39.1, 24.3, 33.7, 31.1, 33.6, 27.8, 51, 32.8, 53.4, 51.9 (2×), 47.6, 47.4, 56.3, 57.7, 52.3, 57.2, 54.4, 57, 63.6, 54.9% and active: 3.82, -3.02, -0.727, -5.12, -2.84, -11.8, 7.37, 0.556, 3.83, 2.71, 5.62, 5.27, -3.64, -4.14, -4.21, 0.352, 4.96, 6.65, 3.62%"
same,growth,runs of 2015,"inactive: 42.1, 13.8, 41.9 (2×), 37.2, 28 (2×), 40.7 (2×), 36.5, 28.4, 39.5, 51.7, 57.7, 35.8, 44.1, 26.7, 27.3 (2×), 44.4, 25.3, 44.9, 49, 34.5, 40.2, 33.6, 35.6, 25.5, 22.9, 13.3 (2×), 35.2 (2×), 10.1, 15.1, 17.5, 23.4 (2×), 29.5, 50.9, 61.9, 55.4, 50.3, 15.7, 53.3, 43.2, 40.5, 33.8, 39.4, 28.6, 31.9, 11, 25, 38.7, 23.7, 26.2, 20.8, 49.1, 49.9, 55.2, 49.8, 47.8 (2×), 31.3, 40.9, 48.8, 43, 54.3, 36.1, 42.4, 34.4% and active: 5.6, 9.29, -2.45, 9.46, 6.95, -3.79, -1.04, 6.62%"
same,growth,runs of 2016,"inactive: 12.8, 12.7, 24, 11.3, 32.1, 37.9 (2×), 66.6, 55.2, 41.2, 40, 30.3, 37.7, 33.2, 29, 29.4, 39.3, 16.4, 15.6, 22, 37.2, 40.2 (2×), 21.7 (2×), 36.4, 42.2, 31.1, 31.2, 22.7, 36.6, 32.5, 47, 47.9, 31, 46.9, 32.2, 31.9 (2×), 66.7, 19.9, 53.1, 42 (2×), 23.3, 37.5, 22.1, 47.1, 49.5, 27.8 (2×), 45.6, 59.4, 33.6, 37.3, 21.4, 40.3 (3×), 39, 40.4, 34.5, 26.5, 17, 32.4, 25.4, 53, 50.4, 33.9, 46.6, 51.8, 44.2 (2×), 58.3, 38.1, 31.7, 33.3, 29.9, 27.1, 12.2, 38, 28.3% and active: 1.6%, 2.17%"
same,growth,runs of 2017,"inactive: 41.8, 34.6, 24, 18.9, 19.9 (2×), 14.3, 44.1, 32.4, 31.2, 41.5, 37.3 (2×), 23.3, 34.2, 35.6 (2×), 41, 38.1 (2×), 33.3, 26.8, 28, 41.9 (2×), 36.6, 36.7 (2×), 38.4, 33.9, 16.5 (2×), 61.4, 41.3, 45.7, 42.4, 37.6, 38.5, 37.7, 38.8, 14.7, 33.1, 42.8, 22.6, 28.4, 27.9, 49.7, 30.8 (2×), 42.1, 27, 32.5, 35.9, 39, 35.2, 29.9, 19.3, 24.5 (2×), 34, 25.9 (2×), 50.1, 44.5, 30, 26, 10.9, 11.8, 15.2, 10.2, 38.7, 31.6, 38.6, 34.9, 20% and active: 1.83%"
same,growth,runs of 2018,"inactive: 26.6, 29, 17.7, 10.7, 25.1, 16.8, 14.3, 14, 20.5, 31.4, 47.2, 40.5, 28.6, 27.8 (2×), 21.2, 18.2, 11.8, 11.1, 39.6, 30.2, 14.6, 34.5, 25.8, 28.9, 25.5, 15.4, 15.8, 21.6, 10.1, 17.9, 33.9, 22.1, 13.4, 14.7, 17.8, 21.7, 39.5, 34.3, 15.2, 19.8% and active: 8.92, 0.642, -1.12, 8.31, 1.17, -0.0032, 2.3, 9.87, 1.79, 2.35, 1.62, 7.41, 5.63%"
same,growth,runs of 2019,"inactive: 31.9, 21.1, 33.1, 21.2 (2×), 11.1, 18, 14.2, 35.2, 24.4, 41.7 (2×), 20.2 (2×), 37.2, 31.4 (2×), 35.3, 23.4 (2×), 26.5, 18.7, 16.5, 22.3, 18.3, 17.6, 20.9, 34.6, 26.6, 25, 40.8, 30.2, 24.7, 26.8, 22.8, 28.4, 12.5, 10.4, 20.5, 22, 33.3, 25.4, 20.7, 21% and active: 1.96, 3.87, 4.37, 8.95, 0.642, 7.57%"
same,growth,runs of 2020,"inactive: 12.3, 17.7, 11.8, 10.5, 15.6, 20.8, 31.6 (2×), 24.2, 39.6, 33.2, 34.6, 10.4, 30.2, 11.1, 26.2, 34.1, 23.4, 44.5, 47.5, 17.3% and active: 5.15%, 9.16%"
